Reference: a collection of fitness landscapes (doi:10.1016/j.celrep.2020.107928)
Over roughly 81,000 sequences, “one-hybrid fitness for binding NBS DNA” has its median near -0.1; the highest 2% begin near 0.36. This is one part of the list.

B1: Caulobacter ParB omega fusion; a variant is named by its letters at X, in order, B8GW30 (parent)
chain: MESVVVGEPGMSEGRRGLGRGLSALLGEVDAAPAQAPGEQLGGSREAPIEILQRNPDQPRRTFREEDLEDLSNSIREKGVLQPILVRPSPDTAGEYQIVAGERAWRAAQRAGLKTVPIMVRELDDLAVLEIGIIENVQRADLNVLEEALSYKVLMEKFERTQENIAQTIGKSXSHVANXMRLLXLPDEVQSYLVSGELTAXHARAIAAAADPVALAKQIIEGGLSVRETEALARKAPNLSAGKSKGGRPPRVKDTDTQALESDLSSVLGLDVSIDHRGSTGTLTITYATLEQLDDLCNRLTRGI

Variants of: B1
Assay: one-hybrid fitness for binding NBS DNA (the Noc-binding site; scaled: cognate 1, non-cognate 0); higher = stronger binding
Conditions: with NBS DNA site
How it was run: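 Bacterial one-hybrid selection in E. coli USO rpoZ- hisB- pyrF- with a HIS3 reporter carrying the site 19 bp from the promoter, screening Caulobacter ParB libraries with four specificity codons randomised (NNS). Cells grew 48 hours at 37°C on M9-minus-histidine plus 0.1 mM IPTG and 5 mM 3-AT. Plasmids before and after selection were Illumina-sequenced, three replicate libraries pooled, and variants under 10 reads dropped. Fitness is the log change in variant-to-wild-type read ratio, rescaled to cognate 1, non-cognate 0.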

Variant	one-hybrid fitness for binding NBS DNA
FKSR	≤ 0.2
HLYD	≤ 0.2
AAPY	≤ 0.2
QGTA	≤ 0.2
QLND	≤ 0.2
MNAV	≤ 0.2
LKNG	≤ 0.2
MLNC	≤ 0.2
NAVT	≤ 0.2
QRLC	0.294
APKY	≤ 0.2
RHWM	≤ 0.2
AFCG	≤ 0.2
RKSS	0.544
ATRY	≤ 0.2
TQWY	≤ 0.2
QKMR	0.51
CGSI	≤ 0.2
PGFD	≤ 0.2
NNQT	≤ 0.2
MMLT	≤ 0.2
PTAI	≤ 0.2
DNPA	≤ 0.2
QNLA	≤ 0.2
LERL	≤ 0.2

Variant	one-hybrid fitness for binding NBS DNA
VSHN	≤ 0.2
QHAD	≤ 0.2
AEAL	≤ 0.2
PDHW	≤ 0.2
RGQK	≤ 0.2
KYLT	≤ 0.2
PPHD	≤ 0.2
ISRF	≤ 0.2
QARP	0.24
DDIS	≤ 0.2
ENLR	≤ 0.2
PSSY	≤ 0.2
MPKP	≤ 0.2
GYNV	≤ 0.2
TEYR	≤ 0.2
RAEP	≤ 0.2
YETS	≤ 0.2
DRRA	≤ 0.2
DNDS	≤ 0.2
HMTE	≤ 0.2
FVGE	≤ 0.2
DSYV	≤ 0.2
VPLY	≤ 0.2
ITHM	≤ 0.2
DFYG	≤ 0.2

Variant	one-hybrid fitness for binding NBS DNA
RSSP	≤ 0.2
QHMM	≤ 0.2
VPCK	≤ 0.2
HNLH	≤ 0.2
GFRD	≤ 0.2
LGPF	≤ 0.2
REIW	≤ 0.2
TYNM	≤ 0.2
KIYT	≤ 0.2
RREW	≤ 0.2
GYYC	≤ 0.2
TKNA	≤ 0.2
KLAW	≤ 0.2
PICM	≤ 0.2
QYFE	≤ 0.2
MFHC	≤ 0.2
ANRY	≤ 0.2
NKSR	≤ 0.2
RQEC	≤ 0.2
HSFT	≤ 0.2
PILF	≤ 0.2
HVFT	≤ 0.2
SVRV	≤ 0.2
VADK	≤ 0.2
LGLN	≤ 0.2

Variant	one-hybrid fitness for binding NBS DNA
EAPE	≤ 0.2
QGDN	≤ 0.2
LYQY	≤ 0.2
FWTP	≤ 0.2
LLSK	≤ 0.2
IQVR	≤ 0.2
VPAR	≤ 0.2
HGFL	≤ 0.2
HDSN	≤ 0.2
IRNP	≤ 0.2
SDRT	≤ 0.2
TEAP	≤ 0.2
ACPN	≤ 0.2
GRNR	≤ 0.2
KSEG	≤ 0.2
FMAM	≤ 0.2
LWPN	≤ 0.2
RFEP	≤ 0.2
VDNV	≤ 0.2
QFRP	≤ 0.2
TIRT	≤ 0.2
YAVE	≤ 0.2
RAID	≤ 0.2
